Laboratory results reported in PubChem BioAssay AID1645882 (National Center for Advancing Translational Sciences (NCATS), 2021).
Out of some 16,000 compounds screened, about 120 (0.75%) were called active. Not shown: some 4% with an inconclusive outcome. The call rests on the fitted dose curve; in most records, active means well fitted inhibition curve with a large enough effect; inconclusive means small, poorly fitted or top-dose-only effect; inactive means no such curve, though single readings can be large or run the other way. This is one part of the list.

These molecules were tested against Rap guanine nucleotide exchange factor 3 (Homo sapiens) (UniProt O95398) (assay: Validation qHTS for antagonist of cAMP-regulated guanine nucleotide exchange factor 3 (EPAC1)). Settings: EPAC1 Rap1B-BODIPY-GDP exchange, fluorescence; series mostly up to 150 µM; activity change, negative = inhibition: at the top concentration.
Chain of UniProt O95398 (O95398 whole entry, looked up): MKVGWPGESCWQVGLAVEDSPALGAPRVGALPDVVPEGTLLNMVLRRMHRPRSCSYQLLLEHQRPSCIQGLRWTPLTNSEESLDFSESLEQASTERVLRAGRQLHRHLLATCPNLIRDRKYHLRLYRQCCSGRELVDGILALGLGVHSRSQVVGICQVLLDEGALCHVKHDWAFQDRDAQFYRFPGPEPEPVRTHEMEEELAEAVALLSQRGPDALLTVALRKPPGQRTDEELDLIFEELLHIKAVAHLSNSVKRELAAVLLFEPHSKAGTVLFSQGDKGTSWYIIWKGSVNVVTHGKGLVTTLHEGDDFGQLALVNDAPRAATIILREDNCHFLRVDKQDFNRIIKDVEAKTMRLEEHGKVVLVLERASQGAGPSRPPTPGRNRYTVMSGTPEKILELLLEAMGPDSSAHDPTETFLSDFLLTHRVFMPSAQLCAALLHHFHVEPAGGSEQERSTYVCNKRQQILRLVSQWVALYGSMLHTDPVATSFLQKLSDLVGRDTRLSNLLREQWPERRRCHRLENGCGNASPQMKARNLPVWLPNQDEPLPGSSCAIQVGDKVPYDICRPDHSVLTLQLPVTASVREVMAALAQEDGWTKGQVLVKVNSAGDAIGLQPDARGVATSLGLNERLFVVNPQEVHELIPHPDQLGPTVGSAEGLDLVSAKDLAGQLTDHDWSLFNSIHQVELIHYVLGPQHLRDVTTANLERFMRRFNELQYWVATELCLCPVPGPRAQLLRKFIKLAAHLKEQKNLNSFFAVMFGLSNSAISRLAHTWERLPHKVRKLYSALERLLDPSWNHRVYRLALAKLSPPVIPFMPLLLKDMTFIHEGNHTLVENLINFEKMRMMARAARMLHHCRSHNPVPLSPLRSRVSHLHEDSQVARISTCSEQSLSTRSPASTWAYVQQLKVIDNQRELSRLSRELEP
In short: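 Nucleotide exchange followed as fluorescence loss when BODIPY-GDP leaves Rap1B (480 nm excitation, 540 nm emission), read at 5 min intervals over 30 min. Reaction: 100 nM EPAC1, 250 nM RAP1B-BODIPY-GDP, 50 uM GDP; ATA and DMSO define normalization.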
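Further: plate controls were DMSO for no effect and ATA control for full effect; nearly all actives have a fitted effect of over 75% in size.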

Activity change, negative = inhibition, inactive:
Cc1nc2cnc(Oc3cccc(Cl)c3)nc2n(CCc2ccccc2)c1=O 7.85%, O=C(CN1Cc2ccccc2OC(c2ccccc2)C1)NCc1cccnc1 (stereo unspecified) -7.69%, COc1cc(=O)n2c(c1C(=O)NC(C)c1ccco1)CCN(C(=O)c1ccc3c(c1)OCCO3)CC2 (stereo unspecified) 1.16%, CC(C)C[C@@H](NC(=O)[C@@H](O)[C@H](N)Cc1ccccc1)C(=O)O 8.77%, CC(N)C(=O)OC(C)(C)Cc1ccc(Cl)cc1 (stereo unspecified), Cc1sc2ccccc2[n+]1CCc1ccccc1 0.561%, C=C1C(=O)O[C@@H]2[C@H]3O[C@]3(C)CCC=C(C)CC[C@@H]12, O=C(c1cnccn1)N1CCC[C@@]2(CCN(Cc3ccccc3)C2)C1 11.2%, CCNc1ncc2nc(-c3cc(F)cc(F)c3)c(=O)n(-c3ccc(OC)cc3)c2n1 20.2%, C[n+]1ccccc1/C=N/O, CC[C@@H](C)[C@H]1O[C@]2(CC[C@@H]1C)C[C@@H]1C[C@H](C/C=C(/C)[C@H](O[C@@H]3C[C@H](OC)[C@H](O[C@@H]4C[C@H](OC)[C@@H](O)[C@H](C)O4)[C@H](C)O3)[C@@H](C)/C=C\C=C3CO[C@@H]4[C@H](O)C(C)=C[C@@H](C(=O)O1)[C@]34O)O2 (tested in a mixture with another compound) -8%, N#Cc1cccc(NC(=O)N2CC3(CCN(C(=O)c4ccco4)CC3)C2)c1 27.6%, Clc1ccccc1-c1ccc2ncnc(NCCN3CCOCC3)c2c1 3.82%, COc1ccc(C(=O)OC2CC3CC[C@H](C2)N3C(C)=O)cc1OC (stereo partly specified) 7.9%, CCOc1cc(N)c(Cl)cc1C(=O)NCC1CN(Cc2ccc(F)cc2)CCO1 (stereo unspecified) 2.14%, COc1ccc(-c2cc(C)cc3c2OC(CNC(=O)c2cc(C(C)C)on2)C3)nn1 (stereo unspecified) 8.64%, Cc1cccc(Nc2ccccc2C(=O)O)c1C, Nc1ccc(/C=C/c2ccc(N)cc2S(=O)(=O)O)c(S(=O)(=O)O)c1 -25.9%, COc1ccc(/C=C/C(=O)c2cc(O)ccc2O)cc1 -23.7%, CNCCCN1c2ccccc2CCc2ccccc21, COc1ccc(CN2CCOc3c(cc(-c4cccc(OC)n4)cc3OC)C2)c(O)c1 6.56%, O=S(=O)(c1ccccc1)N1CCC2(CCN(c3ccc(-c4ccccc4)cc3)CC2)CC1 3.88%, O=C(NCc1nnc2n1CCN(Cc1ccccc1C(F)(F)F)CC2)c1ccncc1 2.46%, COc1ccc(-c2ccc(C(=O)N(C)Cc3csc(C)n3)c(N3CCC(N4CCc5ccccc5C4)CC3)n2)cc1 16.2%, N#Cc1cccc(-c2nc(NCc3cccs3)c3ccccc3n2)c1 5.22%, Cc1nc2cnc(Nc3ccccc3)nc2n(C)c1=O -6.65%, CC(=O)c1ccc(-c2ccc3c4c(ccc3c2)OC(CNC(=O)C(C)N2CCOCC2)C4)s1 (stereo unspecified) 8.5%, COCc1c(C(=O)NCC2CCCN(C)C2)cnn1-c1ncc2c(n1)-c1ccccc1CCC2 (stereo unspecified) 20.8%, COCCCNc1ncnc2sc(C(=O)N3CCCCC3)c(C)c12 19.3%, CCN(CC)CCOc1ccccc1C(=O)CCc1ccccc1 19.3%, O=C(c1ccco1)N1CCC2(CC1)CN(c1ccc(-c3ccccc3)cc1)C2 8.15%, O=C1OC(CN2CCOCC2)CN1/N=C/c1ccc([N+](=O)[O-])o1 (stereo unspecified) -3.67% [at 75.8 µM], COc1ccc(Oc2ncc3nc(-c4cccc(C#N)c4)c(=O)n(C)c3n2)cc1 8.64%, CC1=C(/C=C/C(C)=C/C=C/C(C)=C/C=C/C=C(C)/C=C/C=C(C)/C=C/C2=C(C)C[C@@H](O)CC2(C)C)C(C)(C)C[C@H](O)C1 14.6%, Cc1ccsc1C(=CCCN1CCC[C@@H](C(=O)O)C1)c1sccc1C 24.1%, O=C(NC1CCC(=O)N(CCOc2ccccc2)CC1)OCc1ccccc1 (stereo unspecified) -1.95%, Cc1ccc(CN2CCOc3ccc(CN4CCC(Oc5cccnc5)CC4)cc3C2)o1 11.4%, COC(=O)[C@@H]1CCCN1C(=O)c1cnn(-c2ncc3c(n2)-c2ccccc2CCC3)c1C1CC1 10.3%, CC[C@@](N)(C(=O)O)c1ccc(C(=O)O)cc1 6.53%, CCOC(=O)CN[C@@H](C(=O)N1CC[C@H]1C(=O)NCc1ccc(/C(N)=N/O)cc1)C1CCCCC1 -4.38%, COc1ccc(NC(=O)N2CC3(CCN(S(C)(=O)=O)CC3)C2)cc1 -15.8%, O=C(c1cnccn1)N1CCC2(CC1)CN(Cc1nccs1)C2 2.19%, COCC(=O)Nc1cc(C(=O)N2CCCC(C(N)=O)C2)cc2nc(-c3ccccc3)n(C)c12 (stereo unspecified) 7.12%, CN(C)c1ncc2nc(-c3cc(F)cc(F)c3)c(=O)n(-c3ccccc3)c2n1 14.5%, O=C1CC(C(=O)N2CCCC(c3nc(-c4ccncc4)ncc3-c3ccccc3)C2)C2(CCCCC2)O1 (stereo unspecified) 13.2%, CC(C)(COP(=O)(O)OP(=O)(O)OC[C@H]1O[C@@H](n2cnc3c(N)ncnc32)[C@H](O)[C@@H]1OP(=O)(O)O)C(O)C(=O)NCCC(=O)NCCS (stereo partly specified) 13.1%, COc1cc2c(cc1OC)C(=O)Cc1ccc3c(c1CN(C)CC2)OCO3, COc1cccc(-c2ccc(O)c(CNCc3cccc(OC)c3OC)c2)n1 3.51%, CC(=O)OC1CC(OC(C)=O)[C@]2(C)C(CC(OC(C)=O)[C@@]3(C)C4=CC(=O)OC(c5ccoc5)[C@]4(C)CCC32)C1(C)C (stereo partly specified) 0.201%, CN(C)c1ccc(-c2ccc3ncnc(N4CCNCC4)c3c2)cc1 14.8%, N[C@@H](Cn1cc(I)c(=O)n(Cc2ccc(C(=O)O)cc2)c1=O)C(=O)O 6.19%, O=C1CCC(N2C(=O)c3ccccc3C2=O)C(=O)N1 (stereo unspecified), NCCCC[C@@H](N)C(=O)O 8.19%, C[C@H](N)C(=O)N[C@@H](C)P(=O)(O)O 2.37%, CC(C)(C)CC(C)(C)c1ccc(O)c(-n2nc3ccccc3n2)c1 7.94%, Nc1nc2c(ncn2C2CC(O)C(CO)O2)c(=O)[nH]1 (stereo unspecified) -18.8%, CN1C(=O)CN2CCc3ccccc3C2c2cc(Cl)ccc21 (stereo unspecified) 0.562%, COc1cc(=O)n2c(c1C(=O)NCc1ccco1)CCN(C(=O)c1ccccc1-c1ncc[nH]1)CC2 5.84%, O=C1NCCN1CCN1CCC(c2cn(-c3ccc(F)cc3)c3ccc(Cl)cc23)CC1, COc1cc(-c2noc(C)c2C(=O)NCCO)cc(OC)c1OC 9.28%, c1ccc2occc2c1 27.8% [at 320 µM], CC(=O)C[C@H]1c2cc(F)cc(F)c2S(=O)(=O)N1C1CCN(Cc2ccccc2)CC1 9.79%, Cc1cnc(CNc2ncncc2-c2cccc(C#N)c2)cn1 1.79%, COc1c(O)cc2oc3cc(O)c(CC=C(C)C)c(O)c3c(=O)c2c1CC=C(C)C, CC[C@H](C)[C@H](NC(=O)[C@H](C)NC(=O)[C@H](CC(N)=O)NC(=O)[C@H](CCCCN)NC(=O)[C@H](Cc1ccccc1)NC(=O)[C@H](CC(C)C)NC(=O)[C@@H](NC(=O)[C@@H](NC(=O)[C@H](CC(C)C)NC(=O)[C@@H]1CCCN1C(=O)[C@@H](NC(=O)[C@H](CCC(N)=O)NC(=O)[C@H](CO)NC(=O)[C@H](CCCCN)NC(=O)[C@H](CCC(=O)O)NC(=O)[C@H](CO)NC(=O)[C@@H](NC(=O)[C@H](CCSC)NC(=O)[C@H](Cc1ccccc1)NC(=O)CNC(=O)CNC(=O)[C@@H](N)Cc1ccc(O)cc1)[C@@H](C)O)[C@@H](C)O)C(C)C)[C@@H](C)O)C(=O)N[C@H](C(=O)N[C@@H](CCCCN)C(=O)N[C@@H](CC(N)=O)C(=O)N[C@@H](C)C(=O)N[C@@H](Cc1ccc(O)cc1)C(=O)N[C@@H](CCCCN)C(=O)N[C@@H](CCCCN)C(=O)NCC(=O)N[C@@H](CCC(=O)O)C(=O)O)[C@@H](C)CC 18.3% [at 15.3 µM], C=CCCCCCCCCC(=O)O 19.7%, CCCN(CCC)C(=O)C(CCC(=O)OCCCN1CCN(CCOC(=O)Cc2c(C)n(C(=O)c3ccc(Cl)cc3)c3ccc(OC)cc23)CC1)NC(=O)c1ccccc1 (stereo unspecified) 10.3%, COc1ccc2c(c1)CCC1[C@@H]2CCC2(C)[C@@H](NCCCCCCN3C(=O)C=CC3=O)CC[C@@H]12 (stereo partly specified) -0.307%, CC1(C)S[C@@H]2[C@H](NC(=O)Cc3ccccc3)C(=O)N2[C@H]1C(=O)O -3.13%, C[C@]12C[C@H](O)CC(CO)(CO)C1[C@H](O)C[C@@]13CC4[C@@H](CC12)[C@@]4(C)C3 (stereo partly specified) 22.1%, CNC(C)C#Cc1c(-c2cc(OC)c(OC)c(OC)c2)noc1C (stereo unspecified) 8.6%, CCN(CC)CCNC(=O)COc1ccc(OC)cc1 19.9%, Cc1nc2n(c(=O)c1CCN1CCC(c3noc4cc(F)ccc34)CC1)CCCC2O (stereo unspecified) 3.61% [at 75.8 µM], Cc1cccc(CNc2ncnc3ccc(-c4cccc(NS(C)(=O)=O)c4)cc23)c1 5.51%, COCCNc1ccnc(-c2cccc(NS(C)(=O)=O)c2)n1 21.7%, OC[C@@H]1O[C@@H](n2cnc3c(N[C@H]4CCC[C@@H]4O)ncnc32)[C@H](O)[C@H]1O 12.3%, COc1ccc(-c2nc3ccc(C4=NNC(=O)CC4C)cc3[nH]2)cc1 (stereo unspecified) 6.17%, CC(=O)OCC1=C(C(=O)O)N2C(=O)[C@@H](NC(=O)Cc3cccs3)[C@H]2SC1, CCn1nc(C)cc1C(=O)NCC1Cc2cc(C)cc(-c3ccccc3C(=O)OC)c2O1 (stereo unspecified) 7.13%, COc1ccc2[nH]cc(CCNc3ccnc(-c4ccccc4C)n3)c2c1 -14.8%, CCOc1ccc(NC(=O)CC(C)O)cc1 (stereo unspecified) 7.32%, C=CCN1c2ccc(Br)cc2C(=O)CS1(=O)=O -5.24%, CC(C)=CCC/C(C)=C/CC/C(C)=C/CC/C(C)=C/CO, COc1cccc(CN2C(=O)NC(C)(C3CCN(Cc4cnn(C)c4C)CC3)C2=O)c1OC (stereo unspecified) 13.2%, COc1ccc(CN2CCOc3ccc(C(O)c4cccnc4)cc3C2)cc1O (stereo unspecified) 13.6%, CCN(CC)S(=O)(=O)c1ccc(C(=O)O)cc1 5.25%
